# ± gives the standard deviation of the averaged measurements. The full ranking holds about 33,000 sequences; the median of “E-score (dimensionless, -0.5 to 0.5)” is about -0.049, and the highest 2% start at about 0.37. This is one part of the list.
# Test system: T1, PmTbr T-box DNA-binding domain (GST fusion)
# T1 sequence: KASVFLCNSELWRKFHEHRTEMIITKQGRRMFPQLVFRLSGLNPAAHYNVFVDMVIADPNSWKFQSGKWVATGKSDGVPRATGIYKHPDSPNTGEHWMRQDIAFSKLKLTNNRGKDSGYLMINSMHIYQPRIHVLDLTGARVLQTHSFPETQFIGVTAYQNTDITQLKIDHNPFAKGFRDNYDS
# Assay: PBM E-score of 8-mer (E-score (dimensionless, -0.5 to 0.5)); Tbr is Tbrain of the sea star Patiria miniata (Pm) or the sea urchin Strongylocentrotus purpuratus (Sp); higher = stronger binding preference; most listed sequences are background and not binding sites
# Settings: the construct has about 5 more residues each side
# In short: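 Each ungapped 8-mer received an enrichment E-score from the Universal PBM Analysis Suite, averaged over duplicate arrays. The proteins were Tbr T-box DNA-binding domains, covering the whole T-box plus about five flanking residues, fused to GST and expressed in BL21 E. coli at 20 °C before glutathione affinity purification. Universal Agilent oligonucleotide arrays were made double-stranded by primer extension and incubated with 200 nM protein in PBS (pH 7.5). The arrays were then scanned and quantified, and every 8-mer was scored from probe intensities.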
row,Sequence,PBM E-score of 8-mer
1,ACCGGCGA,-0.0452 ± 0.01
2,ACTGTGAT,0.152 ± 0.046
3,CTCTATAA,-0.0289 ± 0.0099
4,ATAAGCAC,0.0395 ± 0.011
5,CATATAGG,0.0701 ± 0.033
6,TACTGACA,0.1838 ± 0.00074
7,AAACTATC,-0.215 ± 0.063
8,ACATCATC,-0.0863 ± 0.028
9,CTGGGTGC,0.233 ± 0.036
10,GGCCAATA,-0.184 ± 0.0071
11,CGATTCCG,-0.116 ± 0.0064
12,AGCTTACA,0.0783 ± 0.02
13,CTCGTAGA,-0.365 ± 0.0046
14,GGGAGGAA,-0.221 ± 0.0088
15,TAGCGGCA,0.0995 ± 0.05
16,AAACCAGC,0.0308 ± 0.11
17,GAAGTGGA,-0.0636 ± 0.031
18,GACCTCCA,-0.255 ± 0.021
19,TCCGGCGA,-0.0739 ± 0.05
20,CCGGACAA,-0.165 ± 0.0012
21,AACGCGGC,0.0868 ± 0.026
22,GGAGTATA,-0.249 ± 0.0022
23,CGGTCTTC,-0.137 ± 0.033
24,GTGATCGA,0.069 ± 0.075
25,CCCATGAG,-0.096 ± 0.08

row,Sequence,PBM E-score of 8-mer
1,ATGAATGA,-0.161 ± 0.024
2,GGAAAGCC,-0.093 ± 0.0086
3,ATTGGCCA,-0.109 ± 0.0045
4,TGGTGCAA,0.192 ± 0.012
5,GTCCCTTA,-0.157 ± 0.0061
6,AACGACGA,0.0745 ± 0.037
7,GAGAGCTA,-0.0198 ± 0.011
8,GAAGATGA,0.137 ± 0.059
9,ACCGTACA,-0.208 ± 0.034
10,GTACGCCA,-0.195 ± 0.077
11,CTGACTAC,-0.239 ± 0.045
12,ACTAAACG,-0.21 ± 0.015
13,CACCGCAC,0.163 ± 0.024
14,GCATGGCA,0.0387 ± 0.0061
15,ACGGGTAA,-0.0408 ± 0.072
16,CAGCTTGG,0.0903 ± 0.044
17,GCGAAACC,0.275 ± 0.015
18,AAAGGAAC,-0.149 ± 0.013
19,GCGCCCAA,0.077 ± 0.035
20,TCTATAGA,-0.46 ± 0.026
21,CTAACCTC,-0.131 ± 0.013
22,GAGGCCCC,-0.308 ± 0.018
23,AGGCCCAT,-0.274 ± 0.028
24,CCGAGAGC,-0.139 ± 0.047
25,ATTAGCAA,0.12 ± 0.092

row,Sequence,PBM E-score of 8-mer
1,AAAGGTTA,-0.0814 ± 0.057
2,ACCGCCGC,-0.0961 ± 0.12
3,ACCGCGTC,0.134 ± 0.016
4,TATCGTAA,-0.0592 ± 0.061
5,GGTGATAC,0.364 ± 0.025
6,AAAAGCAG,0.11 ± 0.04
7,ACACGTGC,0.387 ± 0.023
8,ATAAGGAC,-0.231 ± 0.0087
9,CAACGGTA,-0.113 ± 0.034
10,ACGGGAGC,-0.116 ± 0.046
11,CACAGCAG,-0.0101 ± 0.077
12,TAGGTCCA,-0.117 ± 0.02
13,CCAGATGA,-0.279 ± 0.085
14,AATACGTA,-0.145 ± 0.081
15,TATCTTAA,-0.157 ± 0.024
16,ATTATCAC,0.38 ± 0.053
17,CATGAACG,-0.129 ± 0.012
18,AGTCTCAC,0.3582 ± 0.00078
19,GGGGGCGA,0.01664 ± 0.00016
20,CCCAAGCC,-0.228 ± 0.037
21,AATCGATT,-0.196 ± 0.057
22,CAGCCACA,0.0349 ± 0.1
23,CTGGCACC,0.411 ± 0.018
24,CTGCGTAC,-0.0912 ± 0.038
25,GTGTGTAA,0.214 ± 0.022

row,Sequence,PBM E-score of 8-mer
1,AGAACCAC,-0.13 ± 0.026
2,ACGATCGT,-0.0411 ± 0.0035
3,CCTCTTGA,-0.0739 ± 0.028
4,GGCCTGTA,-0.335 ± 0.069
5,GTGGGGAA,0.253 ± 0.034
6,AAGGCCAT,-0.225 ± 0.0052
7,CTGCGCAC,0.159 ± 0.038
8,GCCGGTCA,0.158 ± 0.0024
9,GGTGTTAA,0.479 ± 0.0049
10,GCGAAACA,0.202 ± 0.076
11,ACCATTGC,-0.085 ± 0.019
12,CGAGTTAC,-0.0449 ± 0.031
13,AGAGGTTC,-0.124 ± 0.022
14,CTCAATTC,-0.148 ± 0.035
15,CTCACGAG,0.09 ± 0.075
16,ATCATGCA,-0.319 ± 0.006
17,CCGAATAC,-0.127 ± 0.047
18,AAATAATG,-0.0889 ± 0.014
19,GGACGAAC,-0.182 ± 0.031
20,GCTAAGCA,-0.0475 ± 0.039
21,ATATGGTA,-0.257 ± 0.065
22,AACGTAGT,-0.232 ± 0.055
23,CACATTGA,0.196 ± 0.045
24,CGTTGTAA,0.0165 ± 0.029
25,ACCCTGGC,0.142 ± 0.011

row,Sequence,PBM E-score of 8-mer
1,GTAAGATA,-0.0523 ± 0.029
2,TATCAAAA,-0.104 ± 0.051
3,GATCACAA,0.163 ± 0.045
4,ATATACAA,-0.14 ± 0.008
5,ACTACATC,0.0509 ± 0.015
6,CTCGTCAC,0.3943 ± 0.0029
7,GAAACGGC,-0.086 ± 0.049
8,CAACTTTA,0.115 ± 0.034
9,GCCCGAGA,-0.0545 ± 0.033
10,CCAAGCAC,-0.158 ± 0.02
11,TAGGTTAA,-0.216 ± 0.0052
12,CAACCGCC,-0.0203 ± 0.051
13,CGGTTCCC,-0.22 ± 0.012
14,CTCCAGAC,-0.0277 ± 0.017
15,GGGACAAA,-0.181 ± 0.045
16,CTTATGTC,-0.22 ± 0.015
17,TCCGTTAA,-0.118 ± 0.023
18,AAGCGCTT,0.0229 ± 0.02
19,CCGTATAC,-0.0953 ± 0.0049
20,CCGAGACA,-0.0936 ± 0.0089
21,ATCCGGTG,-0.0929 ± 0.065
22,CATGGCCC,-0.201 ± 0.0055
23,ACTATTCA,-0.08168 ± 9.9e-05
24,CTATAGCC,-0.148 ± 0.008
25,CGGTGCAC,-0.108 ± 0.037

row,Sequence,PBM E-score of 8-mer
1,CCGAAGGA,-0.248 ± 0.077
2,AGAGCTAC,-0.216 ± 0.015
3,ATTCAGAA,-0.313 ± 0.0071
4,CGGCACTC,0.0465 ± 0.024
5,CACGATCC,0.0308 ± 0.062
6,AGGGGCCC,-0.303 ± 0.0065
7,GCACAAGC,-0.0674 ± 0.032
8,CTAATTAG,0.0707 ± 0.025
9,TGATAGCA,0.267 ± 0.0091
10,CTGTCCGC,-0.212 ± 0.067
11,AAATGATA,-0.0199 ± 0.014
12,ATGTAAAT,-0.0522 ± 0.032
13,GACAACCC,0.117 ± 0.054
14,GACTTTCA,0.0599 ± 0.042
15,AGCGGATG,-0.173 ± 0.035
16,ATACACGG,-0.128 ± 0.016
17,CGCATACG,-0.0175 ± 0.005
18,CCTTAAGG,-0.124 ± 0.0032
19,GGGTTGAA,-0.0332 ± 0.073
20,ATCAGTCC,-0.155 ± 0.078
21,ACCTGCGT,0.112 ± 0.063
22,CGCTAGGA,0.17 ± 0.031
23,GATGGGGA,0.0198 ± 0.033
24,GAAGTAGC,0.0968 ± 0.071
25,AACCACAT,-0.231 ± 0.022

row,Sequence,PBM E-score of 8-mer
1,GTGGCCAA,0.018 ± 0.065
2,GGCCTTTA,-0.228 ± 0.024
3,CAAAGCCG,0.0505 ± 0.036
4,GGGAATCA,-0.0147 ± 0.043
5,TAAAGGCA,-0.254 ± 0.031
6,ACAAAAGT,0.0953 ± 0.078
7,AAGGGACG,-0.16 ± 0.015
8,CGAGTAGA,-0.208 ± 0.0038
9,ACAAAATC,0.0755 ± 0.12
10,ACTTGATG,0.0241 ± 0.018
11,GCACATAA,0.236 ± 0.024
12,CAGCGCCG,0.11 ± 0.041
13,CCCCTTCG,-0.126 ± 0.029
14,CGGAGAAA,0.0604 ± 0.023
15,CAGCAGAC,0.0235 ± 0.024
16,CCAGGTAC,-0.105 ± 0.1
17,AACCTGCC,-0.0169 ± 0.035
18,ACGTATCA,0.00869 ± 0.048
19,CCGTGTCC,-0.0796 ± 0.014
20,AACTAATA,-0.0828 ± 0.024
21,CCAGGTAA,-0.00588 ± 0.029
22,TAGAGTAA,-0.0497 ± 0.032

# From the supplement of paper PMC4166925
